What all share (test): co-IP; V5H6-tagged FRQ (wild type or mutant) pulled down with V5 agarose from Neurospora lysate (cultures in the light, 25 °C); 50 mM Hepes pH 7.4, 137 mM NaCl, 10% glycerol, 0.4% NP-40; 4 °C, 2 h; Western blot with FRQ, FRH, WC-1 and WC-2 antibodies
(In general: A western blot detects proteins with antibodies after separation by electrophoresis.)

For test [1], the target named is T1, FRQ E835D, V5H6-tagged (Neurospora crassa) (UniProt P19970).
T1 sequence: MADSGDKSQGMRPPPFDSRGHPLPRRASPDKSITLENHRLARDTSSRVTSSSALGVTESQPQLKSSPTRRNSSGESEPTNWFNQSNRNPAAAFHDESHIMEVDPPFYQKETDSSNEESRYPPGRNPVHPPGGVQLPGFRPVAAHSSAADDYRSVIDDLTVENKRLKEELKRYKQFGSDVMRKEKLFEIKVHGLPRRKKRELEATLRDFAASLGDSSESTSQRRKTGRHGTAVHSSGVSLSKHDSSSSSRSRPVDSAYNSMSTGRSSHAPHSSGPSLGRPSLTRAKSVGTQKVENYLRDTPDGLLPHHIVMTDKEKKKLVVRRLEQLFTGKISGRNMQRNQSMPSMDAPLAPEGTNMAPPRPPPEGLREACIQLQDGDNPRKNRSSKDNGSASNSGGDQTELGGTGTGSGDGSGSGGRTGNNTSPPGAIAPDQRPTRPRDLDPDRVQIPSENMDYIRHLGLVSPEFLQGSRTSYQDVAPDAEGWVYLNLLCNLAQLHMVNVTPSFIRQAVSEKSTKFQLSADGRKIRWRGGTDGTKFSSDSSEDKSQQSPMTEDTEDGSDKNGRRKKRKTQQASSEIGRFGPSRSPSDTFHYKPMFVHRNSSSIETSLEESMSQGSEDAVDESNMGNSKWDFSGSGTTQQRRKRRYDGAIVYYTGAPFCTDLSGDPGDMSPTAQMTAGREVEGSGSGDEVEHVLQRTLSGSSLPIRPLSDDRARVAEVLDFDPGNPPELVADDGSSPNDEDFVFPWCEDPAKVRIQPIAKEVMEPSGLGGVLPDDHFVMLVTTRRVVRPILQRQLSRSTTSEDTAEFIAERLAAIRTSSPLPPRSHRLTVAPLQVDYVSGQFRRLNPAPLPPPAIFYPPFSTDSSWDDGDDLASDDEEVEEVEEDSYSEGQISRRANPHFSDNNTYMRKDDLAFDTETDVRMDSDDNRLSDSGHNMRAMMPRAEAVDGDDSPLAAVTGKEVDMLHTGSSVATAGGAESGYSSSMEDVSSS

Test [2] concerns the target T2, FRQ 559–989, V5H6-tagged (Neurospora crassa) (UniProt P19970).
T2 sequence: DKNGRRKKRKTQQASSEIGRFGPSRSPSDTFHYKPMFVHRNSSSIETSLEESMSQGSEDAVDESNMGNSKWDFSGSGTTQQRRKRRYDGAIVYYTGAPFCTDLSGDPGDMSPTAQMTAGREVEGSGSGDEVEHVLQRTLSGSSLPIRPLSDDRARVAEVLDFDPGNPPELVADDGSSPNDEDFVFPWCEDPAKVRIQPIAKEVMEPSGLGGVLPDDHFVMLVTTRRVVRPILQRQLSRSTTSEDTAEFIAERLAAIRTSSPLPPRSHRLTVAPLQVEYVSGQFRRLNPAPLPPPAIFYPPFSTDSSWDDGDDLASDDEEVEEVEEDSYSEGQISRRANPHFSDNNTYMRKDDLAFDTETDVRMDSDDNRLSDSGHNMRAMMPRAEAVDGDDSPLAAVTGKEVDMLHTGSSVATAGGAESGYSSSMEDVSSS

In test [3] the target is T3, FRQ Δ733–774, V5H6-tagged (Neurospora crassa) (UniProt P19970).
T3 sequence: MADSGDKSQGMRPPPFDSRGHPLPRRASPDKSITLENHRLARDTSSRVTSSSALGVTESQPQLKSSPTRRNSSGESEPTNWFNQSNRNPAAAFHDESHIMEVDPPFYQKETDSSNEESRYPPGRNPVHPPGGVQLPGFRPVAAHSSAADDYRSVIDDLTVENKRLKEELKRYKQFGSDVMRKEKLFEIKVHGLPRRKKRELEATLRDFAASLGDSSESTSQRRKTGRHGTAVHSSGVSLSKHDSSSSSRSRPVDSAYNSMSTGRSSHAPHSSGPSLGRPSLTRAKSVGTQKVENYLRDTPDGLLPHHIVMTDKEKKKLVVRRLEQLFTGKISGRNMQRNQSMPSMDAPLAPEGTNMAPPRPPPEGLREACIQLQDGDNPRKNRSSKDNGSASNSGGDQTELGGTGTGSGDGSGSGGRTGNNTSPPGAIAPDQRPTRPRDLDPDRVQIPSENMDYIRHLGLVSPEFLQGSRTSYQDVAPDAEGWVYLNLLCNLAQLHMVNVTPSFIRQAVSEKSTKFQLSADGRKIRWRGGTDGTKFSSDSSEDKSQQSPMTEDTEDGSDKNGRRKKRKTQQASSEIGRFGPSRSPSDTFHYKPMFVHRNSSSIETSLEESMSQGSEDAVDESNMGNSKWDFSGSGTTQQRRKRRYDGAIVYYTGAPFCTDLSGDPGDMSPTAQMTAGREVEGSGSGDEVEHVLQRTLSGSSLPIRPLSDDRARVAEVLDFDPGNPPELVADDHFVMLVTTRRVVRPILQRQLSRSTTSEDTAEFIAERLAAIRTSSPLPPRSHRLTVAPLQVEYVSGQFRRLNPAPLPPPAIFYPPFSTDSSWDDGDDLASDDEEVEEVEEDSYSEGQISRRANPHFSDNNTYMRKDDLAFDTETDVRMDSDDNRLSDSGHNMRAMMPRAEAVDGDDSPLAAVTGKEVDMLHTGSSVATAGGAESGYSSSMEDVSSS

These are yes or no findings as the source states them, for the method shown. In cells and extracts the contact can be indirect. Some binding calls cover weakened binding; strength is not graded here. Tags and fused reporters may be left off the sequences shown.

B1: FRQ-interacting RNA helicase (FRH) (protein, UniProt Q1K502 1-1106)
chain: MDDLFEVFEEQPRAQKKRKASPDVEMADGAAAAAPVANAAAAVTHPQAQAAPAPQKDNIDNNDNNNNNTTTSAVQPTIPNGDAAAAADDVQSPQSPHGLGDNKRRKKTDEAEPIMTDAFQTAESREVTGAQGFAPTEGESIVLSHNIQHQVALPPDLDYEYIPLSEHKPPAEPARTYSFKLDPFQALSVASIEREESVLVSAHTSAGKTVVAEYAIAQCLKKNQRVIYTSPIKALSNQKYRDFQAEFGDVGLMTGDVTINPTASCLVMTTEILRSMLYRGSEIMREVAWVVFDEIHYMRDKIRGVVWEETIILLPDKVRYVFLSATIPNAFQFAEWIAKIHRQACHVVYTDFRPTPLQNYFFPAGGKGILLIVDEKGNFKENNFNQAMAMIEEKKGTDSNDWSAKQKGKGKNKKTNKGGEAADEKADIAKIIKMILKKNFQPVIVFNFSKRECEQMALASSSMKFNAPDEENMVNKVFENALASLSEDDKNLPQISNILPLLRKGIGVHHSGLLPILKETIEILFQEGLIKVLFATETFSIGLNMPARTVVFTQVTKWDGQQRRPLTSSEYIQMAGRAGRRGLDDRGIVIMMVDDKLEPETARAIVVGNQDKLNSAFHLGYNMVLNLLRIEAISPEYMLERCFFQFQNAASVPQLERELISLQQERDAIIIPDESIVKDYYGVRQQLEEYNKDMVFVIQHPQNCLGFFQEGRLIHIKSPSGVDYGWGVLIKHIQRQTPKNGQPPYPEQESYVLDVLLKVSGDFNPKTRGEGPMPEGIMPAGKDSKNARWEVVPCLLNCLRALGQLRVFLPKRLESADEKDGVGKAVDEISRRFPDGIPILDPMENMGINDDSFKKLLRKIEVLESRLVANPLHNSPLLVELWNQYSLKMQLGEQIKEKKKAIARAHSVAQLDELKSRKRVLRRLGFINDAEVVQMKARVACEISSTEGHELLLAELLFNRFFNELSPEICACILSCFIFDEKIETQALKEELAKPFREIQAQARIIAKVSAESKLDVNEDEYVQSLKWQLMETVLAWAQGRPFSEICKMTNVYEGSLIRLFRRLEELLRQMAEAARVMGSEELKDKFELSLSKIRRDIVSFNSLYL
As for B1, the figures for the binding entry in test [1], in test [2] and in test [3] were “binds”, “binds” and “no binding”, respectively.

B2: White Collar-2 (WC-2) (protein, UniProt P78714 1-530)
chain: MSHGQPPPGSSMYGFGAMGMGSGMGSGMGSGMGTGMGTGMGTGMSASQMTSDPQDMMSLLDTSVFPGFDGMSMSLDVGDSMSNPFTPVSVPPPLPAGNAGPSHVGVCGGHGAPDQLFSPDDLIATSMSSAGPMIATPTTTTSGPSGGPSSGGGSTLTEFTKRRNWPAKVVEELQDWEHILDANGRIKHVSPSVEPLTGYKPPEIIDLFLRDLIHPDDVGVFTAELNEAIATGSQLRLFYRFRKKDGNWTIFETVGHAHIAAAKFAPNPQNQSPFCQAVFMMARPYPTKNAGLLDSFLEHKIENERLKRRIAELRREEQEEQEESHRTWRMSQEGRSDVTPSDDTATQMGMTPFYIPMNAQADVMMPPPSQPASSLNIALTRENLEGIAGSRPDSIREKMLRYEGNHADTIEMLTGLKYQEGERSHGITTGNASPTLIKGDAGIAIPLDRDPRTGEKKKKIKVAEEYVCTDCGTLDSPEWRKGPSGPKTLCNACGLRWAKKEKKKNANNNNNGGGIGGHNDIHTPMGDHMG
B2: the binding result in test [1] is recorded as “binds”; in test [2], “no binding”; in test [3], “no binding”.

(Values after publication PMC10320511.)
